Reference: the supplement of paper PMC4967469

Assays:
Assay in all cases: Viability of human cancer cell lines after 72 h of drug (GDSC screen)
XMD13-2 = compound: O=C(NC1CC1)c1cccc(-c2ccc3c(NC(=O)C4CC4)n[nH]c3c2)c1 [XMD13-2]; details: top dose 10.24 µM; top dose inferred
Protocol: (§1)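 Human cancer cell lines in 384-well plates, medium with 10% serum, drug for 72 h over a 256-fold dose range (nine 2-fold or five 4-fold steps up to the top dose). Adherent lines were fixed and stained with the nucleic acid dye Syto60, suspension lines read with resazurin; signal relative to control wells, capped at 0 and 100%. One two-parameter sigmoid per drug and line, fitted in a mixed model over all curves with the slope shared within a line.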

PF-562271 = compound: CN(c1ncccc1CNc1nc(Nc2ccc3c(c2)CC(=O)N3)ncc1C(F)(F)F)S(C)(=O)=O [PF-562271]; details: top dose 2.56 µM; top dose inferred
Protocol: as §1

SNX-2112 = compound: CC1(C)CC(=O)c2c(C(F)(F)F)nn(-c3ccc(C(N)=O)c(N[C@H]4CC[C@H](O)CC4)c3)c2C1 [SNX-2112]; details: top dose 2.56 µM
Protocol: as §1

Vinblastine = compound: CC[C@]1(O)C[C@@H]2CN(CCc3c([nH]c4ccccc34)[C@@](C(=O)OC)(c3cc4c(cc3OC)N(C)[C@H]3[C@@](O)(C(=O)OC)[C@H](OC(C)=O)[C@]5(CC)C=CCN6CC[C@]43[C@@H]65)C2)C1 [Vinblastine]; details: top dose 0.1 µM; top dose inferred
Protocol: as §1

Afatinib = compound: CN(C)C/C=C/C(=O)Nc1cc2c(Nc3ccc(F)c(Cl)c3)ncnc2cc1O[C@H]1CCOC1 [Afatinib]
Protocol: as §1

[1] = top dose 0.5 µM, screen: GDSC drug entry 1032
[2] = top dose 10 µM, screen: GDSC drug entry 1377, top dose inferred

Cell Line | AUC (XMD13-2) | IC50 (XMD13-2) [µM] | AUC (PF-562271) | IC50 (PF-562271) [nM] | AUC (SNX-2112) | IC50 (SNX-2112) [nM] | AUC (Vinblastine) | IC50 (Vinblastine) [nM] | AUC (Afatinib; [1]) | IC50 (Afatinib; [1]) [nM] | AUC (Afatinib; [2]) | IC50 (Afatinib; [2]) [nM]
RPMI-8866 (chronic myeloid leukaemia, suspension) | 0.896 | > 10.2 | 0.987 | > 2560 | 0.166 | 17 | 0.122 | 0.438 | 0.981 | > 500 | 0.929 | > 10000
RT4 (bladder, adherent) | 0.938 | > 10.2 | 0.965 | > 2560 | 0.44 | 109 | 0.82 | 61.4 | 0.987 | > 500 | 0.986 | > 10000
RVH-421 (melanoma, adherent) | 0.969 | > 10.2 | 0.827 | 2430 | 0.678 | 608 | 0.462 | 4.73 | 0.976 | > 500 | 0.915 | > 10000
RXF393 (kidney, adherent) | 0.812 | 8.36 | 0.859 | > 2560 | 0.478 | 136 | 0.384 | 2.65 | 0.97 | > 500 | 0.914 | > 10000
Raji (Burkitt lymphoma, suspension) | 0.968 | > 10.2 | 0.967 | > 2560 | 0.565 | 237 | 0.765 | 34.2 | 0.925 | > 500 | 0.988 | > 10000
Ramos-2G6-4C10 (Burkitt lymphoma, suspension) | 0.787 | 3.77 | 0.932 | > 2560 | 0.317 | 53.9 | 0.211 | 1.05 | 0.974 | > 500 | 0.986 | > 10000
SAS (head and neck, adherent) | 0.897 | > 10.2 | 0.96 | > 2560 | 0.436 | 105 | 0.676 | 20.5 | 0.842 | 411 | 0.803 | 5630
SAT (head and neck, adherent) | 0.975 | > 10.2 | 0.919 | > 2560 | 0.716 | 930 | 0.562 | 10.1 | 0.524 | 37.8 | 0.384 | 252
SBC-1 (small cell lung carcinoma, suspension) | 0.981 | > 10.2 | 0.988 | > 2560 | 0.725 | 677 | 0.485 | 5.71 | 0.988 | > 500 | 0.965 | > 10000
SBC-3 (small cell lung carcinoma, adherent) | 0.681 | 1.94 | 0.876 | 2160 | 0.111 | 10.4 | 0.535 | 7.71 | 0.989 | > 500 | 0.975 | > 10000
SCC-4 (head and neck, adherent) | 0.975 | > 10.2 | 0.847 | 2440 | 0.474 | 135 | 0.385 | 2.84 | 0.955 | > 500 | 0.796 | 5690
SCC-9 (head and neck, adherent) | 0.838 | 9.91 | 0.877 | > 2560 | 0.368 | 62.2 | 0.554 | 9.17 | 0.978 | > 500 | 0.311 | 158
SCC-25 (head and neck, adherent) | 0.858 | 10.2 | 0.89 | > 2560 | 0.487 | 147 | 0.636 |  | 0.813 | 315 | 0.751 | 3690
SCH (stomach, adherent) | 0.988 | > 10.2 | 0.987 | > 2560 | 0.988 | > 2560 | 0.74 | 32.4 | 0.982 | > 500 | 0.971 | > 10000
SF126 (glioma, adherent) | 0.977 | > 10.2 | 0.881 | > 2560 | 0.437 | 106 | 0.629 | 14.5 | 0.986 | > 500 | 0.982 | > 10000
SF268 (glioma, adherent) | 0.899 | > 10.2 | 0.909 | > 2560 | 0.668 | 488 | 0.544 | 8.32 | 0.984 | > 500 | 0.965 | > 10000
SF295 (glioma, adherent) | 0.951 | > 10.2 | 0.905 | > 2560 | 0.466 | 128 | 0.762 | 38.3 | 0.98 | > 500 | 0.874 | > 10000
SF539 (glioma, adherent) | 0.879 | 8.7 | 0.948 | > 2560 | 0.578 | 256 | 0.37 | 2.86 | 0.967 | > 500 | 0.964 | > 10000

Cell Line | AUC (XMD13-2) | IC50 (XMD13-2) [µM] | AUC (PF-562271) | IC50 (PF-562271) [nM] | AUC (SNX-2112) | IC50 (SNX-2112) [nM] | AUC (Vinblastine) | IC50 (Vinblastine) [nM] | AUC (Afatinib; [1]) | IC50 (Afatinib; [1]) [nM] | AUC (Afatinib; [2]) | IC50 (Afatinib; [2]) [nM]
SH-4 (melanoma, adherent) | 0.949 | > 10.2 | 0.878 | > 2560 | 0.551 | 237 | 0.738 | 44.6 | 0.963 | > 500 | 0.871 | > 10000
SHP-77 (small cell lung carcinoma, semi-adherent) | 0.89 | 9.62 | 0.987 | > 2560 | 0.541 | 204 | 0.895 | 98.9 | 0.988 | > 500 | 0.991 | > 10000
SIMA (neuroblastoma, adherent) | 0.92 | > 10.2 | 0.935 | > 2560 | 0.752 | 951 | 0.913 | > 100 | 0.983 | > 500 | 0.984 | > 10000
SISO (cervix, adherent) | 0.939 | > 10.2 | 0.88 | 2450 | 0.839 | 1640 | 0.488 | 5.82 | 0.988 | > 500 | 0.946 | > 10000
SJRH30 (rhabdomyosarcoma, adherent) | 0.846 | 7.87 | 0.943 | > 2560 | 0.86 | 2260 | 0.731 | 29.2 | 0.961 | > 500 | 0.985 | > 10000
SJSA-1 (bone, adherent) | 0.907 | > 10.2 | 0.952 | > 2560 | 0.563 | 244 | 0.628 | 14.8 | 0.977 | > 500 | 0.961 | > 10000
SK-ES-1 (Ewing sarcoma, semi-adherent) | 0.875 | > 10.2 | 0.88 | > 2560 | 0.423 | 97.4 | 0.59 | 11.2 | 0.98 | > 500 | 0.981 | > 10000
SK-HEP-1 (liver, adherent) | 0.982 | > 10.2 | 0.933 | > 2560 | 0.857 | 1870 | 0.62 | 13 | 0.985 | > 500 | 0.987 | > 10000
SK-LMS-1 (soft tissue, adherent) | 0.902 | > 10.2 | 0.927 | > 2560 | 0.18 | 18.6 | 0.452 | 4.65 | 0.983 | > 500 | 0.961 | > 10000
SK-MEL-1 (melanoma, suspension) | 0.986 | > 10.2 | 0.993 | > 2560 | 0.943 | > 2560 | 0.957 | > 100 | 0.993 | > 500 | 0.986 | > 10000
SK-MEL-2 (melanoma, adherent) | 0.87 | 10.2 | 0.924 | > 2560 | 0.955 | > 2560 | 0.441 | 4.29 | 0.987 | > 500 | 0.959 | > 10000
SK-MEL-3 (melanoma, adherent) | 0.914 | > 10.2 | 0.983 | > 2560 | 0.875 | > 2560 | 0.924 | > 100 | 0.974 | > 500 | 0.968 | > 10000
SK-MEL-24 (melanoma, adherent) | 0.982 | > 10.2 | 0.95 | > 2560 | 0.335 | 50.3 | 0.826 | 78.2 | 0.959 | > 500 | 0.921 | > 10000
SK-MEL-30 (melanoma, adherent) | 0.92 | > 10.2 | 0.905 | > 2560 | 0.619 | 348 | 0.764 | 38.3 | 0.981 | > 500 | 0.984 | > 10000
SK-MES-1 (lung squamous cell carcinoma, adherent) | 0.953 | > 10.2 | 0.871 | > 2560 | 0.809 | 1490 | 0.564 | 9.51 | 0.815 | 307 | 0.816 | 6150
SK-MM-2 (myeloma, suspension) | 0.927 | > 10.2 | 0.949 | > 2560 | 0.488 | 148 | 0.985 | > 100 | 0.987 | > 500 | 0.986 | > 10000
SK-N-AS (neuroblastoma, adherent) | 0.836 | 8.34 | 0.958 | > 2560 | 0.83 | 1960 | 0.656 | 18.2 | 0.984 | > 500 | 0.982 | > 10000
SK-N-DZ (neuroblastoma, adherent) | 0.982 | > 10.2 | 0.971 | > 2560 | 0.737 | 753 | 0.757 | 34 | 0.987 | > 500 | 0.857 | 8000

A lower IC50 marks a more sensitive line; a fit beyond the top or the lowest dose is shown as a bound at that dose. The AUC spans the tested range (256-fold, ending at the top dose) of the same fit; values near 1 show little effect. For some assays here: The top dose, if marked as inferred, was calculated from the reported fits. For some assays here: Drugs with an entry number were screened twice under separate entries, and the two screens often disagree.
